Measured values published in the supplement of paper PMC10369915.
The list shows a part of the results. No stated cut-off is given here; in the data, active = 3.2 or more and inactive = the rest. Most of these values are background signal.

What was measured:
Assay in all cases: enrichment score (SH2-bound / input frequency) (ratio); bacterial display of known human phosphotyrosine sites (pTyr-Var adds point mutants) read by sequencing; higher = stronger binding; tyrosines were phosphorylated by kinases first
Settings in all cases: peptide library: pTyr-Var
SHP2 C-SH2 domain E139D = target: SHP2 C-SH2 domain E139D
[1] = target: SHP2 C-SH2 domain wild-type
SHP2 N-SH2 domain L43F = target: SHP2 N-SH2 domain L43F
SHP2 N-SH2 domain T42A = target: SHP2 N-SH2 domain T42A
SHP2 N-SH2 domain T52S = target: SHP2 N-SH2 domain T52S
[2] = target: SHP2 N-SH2 domain wild-type

Measured: enrichment score
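Further: displayed peptides selected on beads carrying the immobilized SH2 domain, with library peptides lacking any tyrosine serving as negative controls.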

B1: CCRL2_Y170_V168M (peptide)
chain: PEFMVYKPQME
inactive: SHP2 C-SH2 domain E139D 1.17 | [1] 1.18 | SHP2 N-SH2 domain L43F 0.967 | SHP2 N-SH2 domain T42A 0.842 | SHP2 N-SH2 domain T52S 1.01 | [2] 1.32

B2: CCDC88B_Y1277_D1279E (peptide)
chain: REQREYLEQLN
inactive: SHP2 C-SH2 domain E139D 0.535 | [1] 0.876 | SHP2 N-SH2 domain L43F 0.392 | SHP2 N-SH2 domain T42A 0.649 | SHP2 N-SH2 domain T52S 0.778 | [2] 0.592

B3: CD19_Y378 (peptide)
chain: GTAPSYGNPSS
inactive: SHP2 C-SH2 domain E139D 0.536 | [1] 0.537 | SHP2 N-SH2 domain L43F 0.447 | SHP2 N-SH2 domain T42A 0.496 | SHP2 N-SH2 domain T52S 0.51 | [2] 0.599

B4: CCNB1IP1_Y125 (peptide)
chain: QMEKIYTQQIQ
inactive: SHP2 C-SH2 domain E139D 0.96 | [1] 1.05 | SHP2 N-SH2 domain L43F 0.909 | SHP2 N-SH2 domain T42A 1.11 | SHP2 N-SH2 domain T52S 0.885 | [2] 1.05

B5: CCR5_Y297_G301V (peptide)
chain: INPIIYAFVVE
inactive: SHP2 C-SH2 domain E139D 0.828 | [1] 0.782 | SHP2 N-SH2 domain L43F 0.701 | SHP2 N-SH2 domain T42A 0.855 | SHP2 N-SH2 domain T52S 0.732 | [2] 0.956

B6: CD200R1L_Y138 (peptide)
chain: NFHRGYHLQVL
inactive: SHP2 C-SH2 domain E139D 1.23 | [1] 1.13 | SHP2 N-SH2 domain L43F 1.32 | SHP2 N-SH2 domain T42A 0.791 | SHP2 N-SH2 domain T52S 1.17 | [2] 1.12

B7: CD200R1L_Y138_H135R (peptide)
chain: NFRRGYHLQVL
inactive: SHP2 C-SH2 domain E139D 0.844 | [1] 0.561 | SHP2 N-SH2 domain L43F 0.711 | SHP2 N-SH2 domain T42A 0.646 | SHP2 N-SH2 domain T52S 0.923 | [2] 0.843

B8: CCR5_Y297_E302G (peptide)
chain: INPIIYAFVGG
inactive: SHP2 C-SH2 domain E139D 1.29 | [1] 1.1 | SHP2 N-SH2 domain L43F 1.12 | SHP2 N-SH2 domain T42A 0.817 | SHP2 N-SH2 domain T52S 0.822 | [2] 1.41

B9: CCR5_Y297 (peptide)
chain: INPIIYAFVGE
inactive: SHP2 C-SH2 domain E139D 0.801 | [1] 0.969 | SHP2 N-SH2 domain L43F 0.872 | SHP2 N-SH2 domain T42A 1.26 | SHP2 N-SH2 domain T52S 0.985 | [2] 1.01

B10: CCPG1_Y569_F566S_YF (peptide)
chain: TVSSDYLHPQF
inactive: SHP2 C-SH2 domain E139D 0.528 | [1] 0.78 | SHP2 N-SH2 domain L43F 0.712 | SHP2 N-SH2 domain T42A 1.01 | SHP2 N-SH2 domain T52S 0.641 | [2] 0.809

B11: CCT6B_Y250_G247A (peptide)
chain: NSAFFYKTAEE
inactive: SHP2 C-SH2 domain E139D 0.86 | [1] 0.959 | SHP2 N-SH2 domain L43F 1.12 | SHP2 N-SH2 domain T42A 0.93 | SHP2 N-SH2 domain T52S 1.04 | [2] 0.922

B12: CCDC93_Y209_R213C (peptide)
chain: EYGRRYGFSCQ
inactive: SHP2 C-SH2 domain E139D 0.801 | [1] 0.913 | SHP2 N-SH2 domain L43F 0.645 | SHP2 N-SH2 domain T42A 0.644 | SHP2 N-SH2 domain T52S 0.58 | [2] 0.854

B13: CCDC93_Y176 (peptide)
chain: DLSEVYKPRRK
inactive: SHP2 C-SH2 domain E139D 0.403 | [1] 0.233 | SHP2 N-SH2 domain L43F 0.305 | SHP2 N-SH2 domain T42A 0.155 | SHP2 N-SH2 domain T52S 0.501 | [2] 0.213

B14: CCRL2_Y170 (peptide)
chain: PEFVVYKPQME
inactive: SHP2 C-SH2 domain E139D 0.908 | [1] 1.02 | SHP2 N-SH2 domain L43F 0.888 | SHP2 N-SH2 domain T42A 0.764 | SHP2 N-SH2 domain T52S 0.92 | [2] 1.05

B15: CCR5_Y339 (peptide)
chain: RASSVYTRSTG
inactive: SHP2 C-SH2 domain E139D 0.341 | [1] 0.453 | SHP2 N-SH2 domain L43F 0.381 | SHP2 N-SH2 domain T42A 0.406 | SHP2 N-SH2 domain T52S 0.545 | [2] 0.297

B16: CCR5_Y339_A335V (peptide)
chain: RVSSVYTRSTG
inactive: SHP2 C-SH2 domain E139D 0.535 | [1] 0.483 | SHP2 N-SH2 domain L43F 0.708 | SHP2 N-SH2 domain T42A 0.406 | SHP2 N-SH2 domain T52S 0.778 | [2] 0.587

B17: CD207_Y217_P213S (peptide)
chain: ISKTWYSAEQF
inactive: SHP2 C-SH2 domain E139D 1.08 | [1] 0.972 | SHP2 N-SH2 domain L43F 0.835 | SHP2 N-SH2 domain T42A 0.839 | SHP2 N-SH2 domain T52S 1.05 | [2] 0.782

B18: CCDC93_Y209 (peptide)
chain: EYGRRYGFSRQ
inactive: SHP2 C-SH2 domain E139D 0.254 | [1] 0.3 | SHP2 N-SH2 domain L43F 0.246 | SHP2 N-SH2 domain T42A 0.252 | SHP2 N-SH2 domain T52S 0.349 | [2] 0.278

B19: CCDC88B_Y1277 (peptide)
chain: REQREYLDQLN
inactive: SHP2 C-SH2 domain E139D 0.722 | [1] 0.631 | SHP2 N-SH2 domain L43F 0.647 | SHP2 N-SH2 domain T42A 0.515 | SHP2 N-SH2 domain T52S 0.723 | [2] 0.603
